This note sets out measurements from publication PMC4707540.

Protein sequences, listed by entry. Tags and fused reporters are not part of them.
UniProt P40337: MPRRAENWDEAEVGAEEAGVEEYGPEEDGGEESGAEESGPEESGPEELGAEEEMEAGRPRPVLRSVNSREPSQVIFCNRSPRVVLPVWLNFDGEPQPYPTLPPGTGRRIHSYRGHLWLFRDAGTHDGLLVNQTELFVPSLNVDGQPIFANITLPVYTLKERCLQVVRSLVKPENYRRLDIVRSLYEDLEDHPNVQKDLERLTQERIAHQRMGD
UniProt P00441: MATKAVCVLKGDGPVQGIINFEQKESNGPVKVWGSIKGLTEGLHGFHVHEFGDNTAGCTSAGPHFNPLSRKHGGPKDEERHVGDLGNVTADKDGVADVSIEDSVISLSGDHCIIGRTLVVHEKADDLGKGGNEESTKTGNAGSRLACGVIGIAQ
UniProt Q13617: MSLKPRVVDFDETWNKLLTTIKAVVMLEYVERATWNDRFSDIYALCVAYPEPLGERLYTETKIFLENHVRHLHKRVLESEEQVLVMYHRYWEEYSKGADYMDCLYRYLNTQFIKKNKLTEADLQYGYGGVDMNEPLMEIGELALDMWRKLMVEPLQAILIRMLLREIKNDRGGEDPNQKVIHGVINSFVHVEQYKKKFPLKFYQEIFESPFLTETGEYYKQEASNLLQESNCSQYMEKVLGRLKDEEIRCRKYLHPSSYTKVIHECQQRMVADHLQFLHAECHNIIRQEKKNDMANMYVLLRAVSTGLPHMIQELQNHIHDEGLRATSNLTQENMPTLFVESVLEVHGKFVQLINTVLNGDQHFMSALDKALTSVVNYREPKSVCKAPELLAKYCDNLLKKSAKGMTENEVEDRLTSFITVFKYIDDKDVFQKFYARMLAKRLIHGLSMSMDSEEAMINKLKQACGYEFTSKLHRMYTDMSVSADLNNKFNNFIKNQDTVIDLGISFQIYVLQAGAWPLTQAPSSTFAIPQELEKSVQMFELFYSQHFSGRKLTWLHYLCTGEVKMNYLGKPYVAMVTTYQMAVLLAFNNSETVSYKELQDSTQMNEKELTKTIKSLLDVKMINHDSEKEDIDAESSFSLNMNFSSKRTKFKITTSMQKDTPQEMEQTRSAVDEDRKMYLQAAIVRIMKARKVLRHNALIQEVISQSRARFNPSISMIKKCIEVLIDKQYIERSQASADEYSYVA

No constants are given. Whether binding was seen depends on the method and setting. In cells and extracts the contact can be indirect. Some results given as binding are weak or reduced against the parent protein; the word gives no strength.

Assay [1] has as its target human VHL tagged with HA (HA-VHL) (human) (UniProt P40337). Kind of assay: co-IP; lysates of HEK293A cells transfected with HA-VHL, immunoprecipitated with anti-HA affinity beads, blotted for endogenous proteins; with or without lactacystin.
Assay [2] has as its target TDP-43-FLAG D247N (human) (UniProt Q13148). Kind of assay: co-IP; lysates of HEK293A cells co-transfected with a FLAG-tagged protein (TDP-43 or SOD1 forms) and HA-VHL, 48 h after transfection; anti-FLAG M2 affinity gel at 4 °C overnight, blotted with anti-HA; co-IP buffer (20 mM HEPES pH 7.4, 125 mM NaCl, 2 mM EDTA, 1% Triton X-100, 10% glycerol); in some panels cells treated with lactacystin (10 μM, 8 h) and/or paraquat (0.4 mM, 8 h).

Assay [3] concerns the target TDP-43-FLAG ΔNES1 (human) (UniProt Q13148). Described as above.
Assay [4] has as its target TDP-43-FLAG C175S (human) (UniProt Q13148). The description is as above.
The target in another assay is TDP-43-FLAG ΔNES (human) (UniProt Q13148). Described as above.
The target of a further assay is WT TDP-43-FLAG (human) (UniProt Q13148). The description is as above.
The target in assay [5] is TDP-43-FLAG E246Q/D247N (QN) (human) (UniProt Q13148). Described as above.
The next assay concerns the target WT SOD1-FLAG (UniProt P00441). The assay is described as above.
For assay [6], the target named is TDP-43-FLAG ΔNES2 (human) (UniProt Q13148). Described as above.
The next assay addresses FLAG-CUL2 (UniProt Q13617). In words: co-IP; lysates of HeLa cells co-transfected with TDP-43-GFP (WT or mNLS) and FLAG-CUL2; immunoprecipitated with anti-FLAG or anti-GFP affinity beads, blotted with anti-GFP or anti-FLAG.

Regarding “endogenous TDP-43 (from UniProt Q13148 1-414)”, the binding entry in [1] is listed as “binds”.
Turning to “human VHL tagged with HA (HA-VHL) (from UniProt P40337 1-213)”, the binding result was “binds” in assay [2]; “binds” in assay [3]; “binds” in [4]; “binds” with TDP-43-FLAG ΔNES (human); “binds” with WT TDP-43-FLAG (human); “no binding” in assay [5]. Further, the binding result is on record as “no binding” with WT SOD1-FLAG and “binds” in assay [6].
As for “wild type (WT) TDP-43-GFP (from UniProt Q13148 1-414)”, the binding entry in the assay with FLAG-CUL2 is recorded as “binds”.
